# Source: the supplement of paper PMC8728848
# Some of the results follow.
# B1: MIC1 (Toxoplasma gondii), O00834 (protein)
# chain: VGPEAYGEASHSHSPASGRYIQQMLDQRCQEIAAELCQSGLRKMCVPSSRIVARNAVGITHQNTLQWRCFDTASLLESNQENNGVNCVDDCGHTIPCPGGVHRQNSNHATRHEILSKLVEEGVQRFCSPYQASANKYCNDKFPGTIARRSKGFGNNVEVAWRCYEKASLLYSVYAECASNCGTTWYCPGGRRGTSTELDKRHYTEEEGIRQAIGSVDSPCSEVEVCLPKDENPPLCLDESGQISRT
# What was measured:
# Assay in all cases: glycan array binding signal (z-score within array); higher = stronger binding
# Settings in all cases: glycan notation: IUPAC condensed, linker removed
# [1] = biological target: 3dGal(b1-3)[Fuc(a1-4)]Glc
# Outline: (§1)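 Glycan array binding is given as a within-array Z-score, which can be read as non-binding when negative. The arrays, 3228 of them, came from the Consortium for Functional Glycomics database and were retained only where the protein sequence was available. Z-scores were averaged across arrays of the same protein sequence at different concentrations or buffers and across linkers.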
# 3dGal(b1-4)Glc = biological target: 3dGal(b1-4)Glc
# Outline: as §1
# [2] = biological target: Ara(a1-5)Ara(a1-5)Ara(a1-5)Ara(a1-5)Ara(a1-5)Ara
# Outline: as §1
# [3] = biological target: Ara(a1-5)Ara(a1-5)Ara(a1-5)Ara(a1-5)Ara(a1-5)Ara(a1-5)Ara
# Outline: as §1
# Fuc(a1-2)Gal = biological target: Fuc(a1-2)Gal
# Outline: as §1
# [4] = biological target: Fuc(a1-2)Gal(b1-3)GlcNAc(b1-3)Gal(b1-4)Glc
# Outline: as §1
# [5] = biological target: Fuc(a1-2)Gal(b1-3)GlcNAc(b1-3)[Fuc(a1-3)[Gal(b1-4)]GlcNAc(b1-6)]Gal(b1-4)Glc
# Outline: as §1
# [6] = biological target: Fuc(a1-2)Gal(b1-3)[Fuc(a1-4)]GlcNAc(b1-3)Gal(b1-4)Glc
# Outline: as §1
# [7] = biological target: Fuc(a1-2)Gal(b1-3)[Fuc(a1-4)]GlcNAc(b1-3)Gal(b1-4)[Fuc(a1-3)]GlcNAc(b1-3)Gal(b1-4)Glc
# Outline: as §1
# [8] = biological target: Fuc(a1-2)Gal(b1-3)[Fuc(a1-4)]GlcNAc(b1-3)[Fuc(a1-2)]Gal(b1-4)Glc
# Outline: as §1
# [9] = biological target: Fuc(a1-2)Gal(b1-3)[Fuc(a1-4)]GlcNAc(b1-3)[Fuc(a1-3)[Gal(b1-4)]GlcNAc(b1-6)]Gal(b1-4)Glc
# Outline: as §1
# [10] = biological target: Fuc(a1-2)Gal(b1-3)[Fuc(a1-4)]GlcNAc(b1-3)[Gal(b1-4)GlcNAc(b1-6)]Gal(b1-4)Glc
# Outline: as §1
# [11] = biological target: Fuc(a1-2)Gal(b1-4)[Fuc(a1-3)]GlcNAc(b1-3)Gal(b1-4)Glc
# Outline: as §1
# [12] = biological target: Fuc(a1-2)Gal(b1-4)[Fuc(a1-3)]GlcNAc(b1-3)[Fuc(a1-2)]Gal(b1-4)Glc
# Outline: as §1
# Fuc(a1-2)[Gal(a1-3)]Gal = biological target: Fuc(a1-2)[Gal(a1-3)]Gal
# Outline: as §1
# [13] = biological target: Fuc(a1-2)[Gal(a1-3)]Gal(b1-4)GlcNAc(b1-3)Gal(b1-4)Glc
# Outline: as §1
# [14] = biological target: Fuc(a1-2)[GalNAc(a1-3)]Gal
# Outline: as §1
# [15] = biological target: Fuc(a1-2)[GalNAc(a1-3)]Gal(b1-3)GlcNAc(b1-3)Gal(b1-4)Glc
# Outline: as §1
# [16] = biological target: Fuc(a1-2)[GalNAc(a1-3)]Gal(b1-3)[Fuc(a1-4)]GlcNAc(b1-3)Gal(b1-4)Glc
# Outline: as §1
# [17] = biological target: Fuc(a1-2)[Neu5Ac(bond)]Gal(b1-3)GlcNAc(b1-3)Gal(b1-4)Glc
# Outline: as §1
# Fuc(a1-3)GlcNAc6S = biological target: Fuc(a1-3)GlcNAc6S
# Outline: as §1
# [18] = biological target: Fuc(a1-3)[3dGal(b1-4)]Glc
# Outline: as §1
# Fuc(a1-3)[Gal(b1-4)]Glc = biological target: Fuc(a1-3)[Gal(b1-4)]Glc
# Outline: as §1
# [19] = biological target: Fuc(a1-3)[Gal(b1-4)]GlcNAc
# Outline: as §1
# [20] = biological target: Fuc(a1-3)[Gal(b1-4)]GlcNAc(b1-3)Gal(b1-4)Glc
# Outline: as §1
# [21] = biological target: Fuc(a1-3)[Gal(b1-4)]GlcNAc(b1-3)Gal(b1-4)[Fuc(a1-3)]Glc
# Outline: as §1
# [22] = biological target: Fuc(a1-3)[Gal(b1-4)]GlcNAc(b1-3)[Fuc(a1-2)]Gal(b1-4)Glc
# Outline: as §1
# [23] = biological target: Fuc(a1-3)[Gal(b1-4)]GlcNAc(b1-3)[Fuc(a1-3)[Gal(b1-4)]GlcNAc(b1-6)]Gal(b1-4)Glc
# Outline: as §1
# [24] = biological target: Fuc(a1-3)[Gal3S(b1-4)]Glc
# Outline: as §1
# [25] = biological target: Fuc(a1-3)[Gal3S(b1-4)]GlcNAc
# Outline: as §1
# [26] = biological target: Fuc(a1-3)[Gal3S(b1-4)]GlcNAc(b1-3)Gal(b1-4)Glc
# Outline: as §1
# [27] = biological target: Fuc(a1-3)[Gal3S(b1-4)]GlcNAc6S(b1-3)Gal(b1-4)Glc
# Outline: as §1
# [28] = biological target: Fuc(a1-3)[Gal6S(b1-4)]GlcNAc(b1-3)Gal(b1-4)Glc
# Outline: as §1
# Fuc(a1-6)GlcNAc = biological target: Fuc(a1-6)GlcNAc
# Outline: as §1
# [29] = biological target: Gal(a1-3)Gal(b1-4)Gal(a1-3)Gal
# Outline: as §1
# Gal(a1-4)Gal(b1-4)Glc = biological target: Gal(a1-4)Gal(b1-4)Glc
# Outline: as §1
# Gal(a1-4)Gal(b1-4)GlcNAc = biological target: Gal(a1-4)Gal(b1-4)GlcNAc
# Outline: as §1
binder,measurement,setting,value
B1,glycan array binding signal (z-score),[1],-0.312
same,glycan array binding signal (z-score),3dGal(b1-4)Glc,-0.305
same,glycan array binding signal (z-score),[2],-0.287
same,glycan array binding signal (z-score),[3],-0.287
same,glycan array binding signal (z-score),Fuc(a1-2)Gal,-0.287
same,glycan array binding signal (z-score),[4],-0.312
same,glycan array binding signal (z-score),[5],-0.297
same,glycan array binding signal (z-score),[6],-0.293
same,glycan array binding signal (z-score),[7],-0.302
same,glycan array binding signal (z-score),[8],-0.273
same,glycan array binding signal (z-score),[9],-0.312
same,glycan array binding signal (z-score),[10],-0.269
same,glycan array binding signal (z-score),[11],-0.296
same,glycan array binding signal (z-score),[12],-0.312
same,glycan array binding signal (z-score),Fuc(a1-2)[Gal(a1-3)]Gal,-0.292
same,glycan array binding signal (z-score),[13],-0.253
same,glycan array binding signal (z-score),[14],-0.287
same,glycan array binding signal (z-score),[15],-0.312
same,glycan array binding signal (z-score),[16],0.013
same,glycan array binding signal (z-score),[17],-0.42
same,glycan array binding signal (z-score),Fuc(a1-3)GlcNAc6S,-0.249
same,glycan array binding signal (z-score),[18],-0.337
same,glycan array binding signal (z-score),Fuc(a1-3)[Gal(b1-4)]Glc,-0.287
same,glycan array binding signal (z-score),[19],-0.287
same,glycan array binding signal (z-score),[20],-0.359
same,glycan array binding signal (z-score),[21],-0.312
same,glycan array binding signal (z-score),[22],-0.28
same,glycan array binding signal (z-score),[23],-0.312
same,glycan array binding signal (z-score),[24],-0.041
same,glycan array binding signal (z-score),[25],-0.284
same,glycan array binding signal (z-score),[26],-0.42
same,glycan array binding signal (z-score),[27],-0.418
same,glycan array binding signal (z-score),[28],-0.42
same,glycan array binding signal (z-score),Fuc(a1-6)GlcNAc,-0.287
same,glycan array binding signal (z-score),[29],-0.305
same,glycan array binding signal (z-score),Gal(a1-4)Gal(b1-4)Glc,-0.287
same,glycan array binding signal (z-score),Gal(a1-4)Gal(b1-4)GlcNAc,-0.302
